# Data reported in a collection of fitness landscapes (doi:10.1016/j.celrep.2020.107928).
# Whole data set: some 81,000 sequences, median “one-hybrid fitness for binding NBS DNA” near -0.1, cut for the highest 2% near 0.36. This is one part of the list.
# B1: Caulobacter ParB omega fusion; a variant is named by its letters at X, in order, B8GW30 (parent)
# chain: MESVVVGEPGMSEGRRGLGRGLSALLGEVDAAPAQAPGEQLGGSREAPIEILQRNPDQPRRTFREEDLEDLSNSIREKGVLQPILVRPSPDTAGEYQIVAGERAWRAAQRAGLKTVPIMVRELDDLAVLEIGIIENVQRADLNVLEEALSYKVLMEKFERTQENIAQTIGKSXSHVANXMRLLXLPDEVQSYLVSGELTAXHARAIAAAADPVALAKQIIEGGLSVRETEALARKAPNLSAGKSKGGRPPRVKDTDTQALESDLSSVLGLDVSIDHRGSTGTLTITYATLEQLDDLCNRLTRGI
# Variants of: B1
# Experiment: one-hybrid fitness for binding NBS DNA (the Noc-binding site; scaled: cognate 1, non-cognate 0); higher = stronger binding
# Conditions: with NBS DNA site
# Outline: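 Fitness here means the log change in variant-to-wild-type read ratio between plasmids sequenced before and after selection. That scale was set so cognate equals 1 and non-cognate equals 0. The selection was a bacterial one-hybrid screen of Caulobacter ParB libraries, four specificity codons randomised, in E. coli USO carrying a HIS3 reporter with the site 19 bp from the promoter, grown 48 hours at 37°C on M9-minus-histidine with 0.1 mM IPTG and 5 mM 3-AT.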
row,Variant,one-hybrid fitness for binding NBS DNA
1,DAYS,≤ 0.2
2,SGHT,≤ 0.2
3,RNLD,≤ 0.2
4,QMDT,0.345
5,TSPA,≤ 0.2
6,PPGD,≤ 0.2
7,LKCD,≤ 0.2
8,RAFR,0.27
9,CQTA,≤ 0.2
10,FAPR,≤ 0.2
11,VLCA,≤ 0.2
12,SRGC,≤ 0.2
13,QQEQ,≤ 0.2
14,SSRT,≤ 0.2
15,PQSL,≤ 0.2
16,GDHM,≤ 0.2
17,PCTC,≤ 0.2
18,KPHD,≤ 0.2
19,CHAR,≤ 0.2
20,GKTS,≤ 0.2
21,AHEN,≤ 0.2
22,FILG,≤ 0.2
23,MVNG,≤ 0.2
24,QTFS,0.391
25,LWSA,≤ 0.2

row,Variant,one-hybrid fitness for binding NBS DNA
1,QNRW,≤ 0.2
2,TSAQ,≤ 0.2
3,PRDF,≤ 0.2
4,QGDA,≤ 0.2
5,CAAY,≤ 0.2
6,FQIT,≤ 0.2
7,LCDM,≤ 0.2
8,DANM,≤ 0.2
9,LGGC,≤ 0.2
10,AMTG,≤ 0.2
11,DVKL,≤ 0.2
12,FGEV,≤ 0.2
13,PCHW,≤ 0.2
14,HDPR,≤ 0.2
15,RGAW,≤ 0.2
16,DFEG,≤ 0.2
17,CVFL,≤ 0.2
18,RNLA,≤ 0.2
19,LMND,≤ 0.2
20,LITF,≤ 0.2
21,HIHV,≤ 0.2
22,VPMY,≤ 0.2
23,ASRT,≤ 0.2
24,INLK,≤ 0.2
25,LSMM,≤ 0.2

row,Variant,one-hybrid fitness for binding NBS DNA
1,QMGT,0.447
2,MRIS,≤ 0.2
3,LGNS,≤ 0.2
4,NQPS,≤ 0.2
5,LLNY,≤ 0.2
6,ATQI,≤ 0.2
7,AETV,≤ 0.2
8,SRIC,≤ 0.2
9,PRMG,≤ 0.2
10,ARTI,≤ 0.2
11,ISNC,≤ 0.2
12,AIWD,≤ 0.2
13,LYIS,≤ 0.2
14,FDPI,≤ 0.2
15,TFTR,≤ 0.2
16,GCVM,≤ 0.2
17,PRPP,≤ 0.2
18,RCET,≤ 0.2
19,QYSF,≤ 0.2
20,AATG,≤ 0.2
21,QFNW,≤ 0.2
22,WSKI,≤ 0.2
23,LWKR,0.238
24,HTSA,≤ 0.2
25,QTMI,≤ 0.2

row,Variant,one-hybrid fitness for binding NBS DNA
1,LQKL,≤ 0.2
2,RKNR,0.639
3,ISNF,≤ 0.2
4,ELLS,≤ 0.2
5,QCLS,0.382
6,INVY,≤ 0.2
7,HPMI,≤ 0.2
8,VPST,≤ 0.2
9,PTVC,≤ 0.2
10,YTGC,≤ 0.2
11,AKQG,≤ 0.2
12,SSKV,≤ 0.2
13,SWDT,≤ 0.2
14,LDWE,≤ 0.2
15,HNNK,≤ 0.2
16,DYNS,≤ 0.2
17,TAMC,≤ 0.2
18,FREY,≤ 0.2
19,SVGR,≤ 0.2
20,DLDL,≤ 0.2
21,SQQK,≤ 0.2
22,LQVR,≤ 0.2
23,ATNN,≤ 0.2
24,GNTY,≤ 0.2
25,NPEL,≤ 0.2

row,Variant,one-hybrid fitness for binding NBS DNA
1,GHRN,≤ 0.2
2,WNEG,≤ 0.2
3,WRNE,≤ 0.2
4,LCNK,≤ 0.2
5,ATRH,≤ 0.2
6,KMTV,≤ 0.2
7,GSHW,≤ 0.2
8,ENVS,≤ 0.2
9,HISW,≤ 0.2
10,HLND,≤ 0.2
11,AECP,≤ 0.2
12,RERY,≤ 0.2
13,YNSW,≤ 0.2
14,LLSN,≤ 0.2
15,GKGG,≤ 0.2
16,LLLL,≤ 0.2
17,PYAI,≤ 0.2
18,VWHG,≤ 0.2
19,MPSP,≤ 0.2
20,RLNG,≤ 0.2
21,QCAP,≤ 0.2
22,KGQS,≤ 0.2
23,DVGC,≤ 0.2
24,LHIS,≤ 0.2
25,AIVT,≤ 0.2

row,Variant,one-hybrid fitness for binding NBS DNA
1,PMCD,≤ 0.2
2,HLME,≤ 0.2
3,LKMD,≤ 0.2
4,KDSC,≤ 0.2
5,RNDF,≤ 0.2
6,ILRN,≤ 0.2
7,AFHS,≤ 0.2
8,PQTC,≤ 0.2
9,PMSL,≤ 0.2
10,SRNH,≤ 0.2
11,TGVC,≤ 0.2
12,SLIM,≤ 0.2
13,KTWG,≤ 0.2
14,ILQI,≤ 0.2
15,NGAT,≤ 0.2
16,SHFF,≤ 0.2
17,FQCS,≤ 0.2
18,YPPS,≤ 0.2
19,YNPF,≤ 0.2
20,QWFE,≤ 0.2
21,KSCA,≤ 0.2
22,FDRN,≤ 0.2
23,QNAS,≤ 0.2
24,TMCS,≤ 0.2
25,CRAP,≤ 0.2

row,Variant,one-hybrid fitness for binding NBS DNA
1,FHAS,≤ 0.2
2,LFTN,≤ 0.2
3,RTSD,≤ 0.2
4,HTWD,≤ 0.2
5,NTMW,≤ 0.2
6,AKHT,≤ 0.2
7,QVRE,≤ 0.2
8,QHAF,≤ 0.2
9,PRRC,≤ 0.2
10,MWHT,≤ 0.2
11,LWKT,0.333
12,YHNR,≤ 0.2
13,QTPE,≤ 0.2
14,IITG,≤ 0.2
15,VIHV,≤ 0.2
16,EYNK,≤ 0.2
17,RWKQ,≤ 0.2
18,QVHS,0.296
19,QSEC,≤ 0.2
20,QIHT,0.425
21,RHID,≤ 0.2
22,RDEP,≤ 0.2
23,MVWR,≤ 0.2
24,VWLW,≤ 0.2
25,KLQE,≤ 0.2

row,Variant,one-hybrid fitness for binding NBS DNA
1,KSHS,≤ 0.2
2,YIHC,≤ 0.2
3,RLEY,≤ 0.2
4,FALE,≤ 0.2
5,CNRV,≤ 0.2
6,QPHM,≤ 0.2
7,QDAF,≤ 0.2
8,NGIR,≤ 0.2
9,RKGE,≤ 0.2
10,QSYM,≤ 0.2
11,IASF,≤ 0.2
12,GLLV,≤ 0.2
13,IRSG,≤ 0.2
14,TNRP,≤ 0.2
15,HQGR,≤ 0.2
16,GSTR,≤ 0.2
17,MYIT,≤ 0.2
18,WDYS,≤ 0.2
19,GYDF,≤ 0.2
20,GNCL,≤ 0.2
